# Structures can show the parent of a compound that is named as a salt. ± gives the standard deviation of the averaged measurements. Some of the results follow.
# Tested on: OVCAR8
# Assay: cell count relative to DMSO vehicle (fold change); OVCAR8 is a high-grade serous ovarian cancer line and CX-5461 an RNA polymerase I inhibitor; higher = more surviving senescent cells (less killing)
# Conditions: senescence inducer: CX-5461 3 µM 48 h, then 6 d recovery (CX senescent), exposure time 24 h
Compound,cell count (compound dose 1 µM),cell count (compound dose 5 µM)
COc1cc(C=CC(=O)O)cc(OC)c1O,1.07 ± 0.047,1.02 ± 0.1
COc1cc(C(C)=O)ccc1O [Apocynin],1.1 ± 0.17,1.08 ± 0.12
"O=C(/C=C/c1ccc(O)c(O)c1)O[C@@H]1[C@H](O)C[C@@](O)(C(=O)O)C[C@H]1OC(=O)/C=C/c1ccc(O)c(O)c1 [4,5-Dicaffeoylquinic acid]",1.2 ± 0.28,1.15 ± 0.33
COC(=O)c1ccc([C@H]2c3[nH]c4ccccc4c3C[C@H](C(=O)OC)N2C(=O)CCl)cc1,0.025 ± 0.0042,0.0205 ± 0.005
CCCCCCCCCCCCc1ccc(S(=O)(=O)Nc2nncs2)cc1,1.1 ± 0.06,1.12 ± 0.12
C[C@H]1[C@H](C)CC[C@]2(C(=O)O)CC[C@]3(C)C(=CC[C@@H]4[C@@]5(C)C[C@@H](O)[C@H](O)[C@@](C)(CO)[C@@H]5CC[C@]43C)[C@H]12 [Asiatic acid],1.04 ± 0.12,1.09 ± 0.17
Cc1ccc([N+](=O)[O-])cc1S(=O)(=O)N(C)/N=C/c1cnc2ccc(Br)cn12 [PIK-75 (hydrochloride)],0.924 ± 0.042,1.21 ± 0.14
COc1cc(-c2ccc(=O)[nH]n2)ccc1OC(F)F [Zardaverine],0.953 ± 0.42,1.04 ± 0.11
CCCCCCCc1ccc(CCc2cccc(O)c2C(=O)O)cc1,1.2 ± 0.24,1.31 ± 0.093
COc1cc(OC)c(/C=C/S(=O)(=O)Cc2ccc(OC)c(NCC(=O)O)c2)c(OC)c1 [Rigosertib (sodium)],1.17 ± 0.042,1.32 ± 0.023
CC(C)(C)S(=O)(=O)c1ccc2nccc(Nc3n[nH]c4ccc(F)cc34)c2c1,1.12 ± 0.15,1.16 ± 0.26
Nc1nc(OCc2ccccc2)c2nc[nH]c2n1 [O6-Benzylguanine],1.1 ± 0.16,1.09 ± 0.035
Cn1cc(-c2ccc3c(c2)CCN3C(=O)Cc2cccc(C(F)(F)F)c2)c2c(N)ncnc21,0.957 ± 0.0014,1.03 ± 0.011
Oc1cccc(-c2nc(N3CCOCC3)c3oc4ncccc4c3n2)c1,1.244 ± 0.0064,1.06 ± 0.05
Cc1cc(C)c(S(=O)(=O)Nc2cccc(C(F)(F)F)c2)c(C)c1,1.08 ± 0.22,1.01 ± 0.11
Cc1ccc(Oc2ccnc3cc(-c4cnn(C5CCNCC5)c4)ccc23)cc1,0.964 ± 0.077,0.948 ± 0.076
CCN(CC)CCCCNc1ncc2cc(-c3cc(OC)cc(OC)c3)c(NC(=O)NC(C)(C)C)nc2n1,1.12 ± 0.31,1.2 ± 0.17
C/C=C/C/C=C/CCC(=O)[C@H]1O[C@H]1C(N)=O [Cerulenin],1.09 ± 0.03,1.07 ± 0.068
CC(C)S(=O)(=O)c1ccc2nccc(Nc3ccc4scnc4c3)c2c1,1.1 ± 0.057,1.07 ± 0.028
Oc1cc(O)c2c(c1)O[C@H](c1ccc(O)c(O)c1)[C@H](O)[C@H]2c1c(O)cc(O)c2c1O[C@H](c1ccc(O)c(O)c1)[C@H](O)[C@H]2c1c(O)cc(O)c2c1O[C@H](c1ccc(O)c(O)c1)[C@H](O)C2 [Procyanidin C1],1.06 ± 0.2,1.02 ± 0.19
C[N+](C)(C)CCC(=O)c1ccc2ccccc2c1,1.09 ± 0.31,1.12 ± 0.28
C[C@H](NC(=O)C(=O)Nc1ccccc1C(C)(C)C)C(=O)N[C@@H](CC(=O)O)C(=O)COc1c(F)c(F)cc(F)c1F [Emricasan],1.06 ± 0.49,1.15 ± 0.35

Compound,cell count (compound dose 1 µM),cell count (compound dose 5 µM)
CN(C)CCN1CCN(CCCN2c3ccccc3Sc3ccc(C(F)(F)F)cc32)CC1 [ZZW-115 (hydrochloride)],1.17 ± 0.12,1.14 ± 0.12
CC[C@H](CO)Nc1nc(NCc2ccc(-c3ccccn3)cc2)c2ncn(C(C)C)c2n1 [(R)-CR8 (trihydrochloride)],0.639 ± 0.1,0.834 ± 0.21
Nc1ncnc2n[nH]c(Nc3ccc(F)cc3)c12,1.12 ± 0.26,1.32 ± 0.33
CCN(CC)CCCC(C)Nc1nc(C)cc(Nc2ccc3nc(C)cc(N)c3c2)n1 (stereo not given),1.14 ± 0.012,1.19 ± 0.084
C#CCC(Cc1cnc2nc(N)nc(N)c2n1)c1ccc(C(=O)N[C@@H](CCC(=O)O)C(=O)O)cc1 (stereo not given in full) [Pralatrexate],0.925 ± 0.2,1.052 ± 0.0035
C=C(C)[C@@H]1CC[C@]2(C(=O)OCC(N)(CO)CO)CC[C@]3(C)[C@H](CC[C@@H]4[C@@]5(C)CC[C@H](OC(C)=O)C(C)(C)[C@@H]5CC[C@]43C)[C@@H]12,1.05 ± 0.14,1.03 ± 0.061
Nc1cccc(Nc2ncc(-c3ccc(Cl)cc3)o2)c1,0.988 ± 0.043,1.37 ± 0.24
Cc1ccc2nc(N)[nH]c(=O)c2c1Sc1ccncc1 [Nolatrexed dihydrochloride],1.1605 ± 0.00071,1.03 ± 0.062
C=C[C@]1(C)CC[C@@H](C(=C)C)C[C@H]1C(=C)C [β-Elemene],1.06 ± 0.3,1.1 ± 0.26
C=C(C)[C@@H]1CC=C(CO)CC1 [(S)-(-)-Perillyl alcohol],0.873 ± 0.095,0.515 ± 0.094
NS(=O)(=O)c1ccc(-n2nc(C(F)(F)F)cc2-c2ccc(Cl)cc2)cc1,1.25 ± 0.25,0.997 ± 0.16
O=C1NC(=O)C(=Cc2ccc(-c3ccc(F)cc3)o2)S1 (stereo in doubt),1.16 ± 0.23,1.18 ± 0.27
CN(C)C/C=C/C(=O)Nc1cc2c(Nc3ccc(F)c(Cl)c3)ncnc2cc1O[C@H]1CCOC1 [Afatinib],0.9 ± 0.043,0.545 ± 0.061
CCc1c(Cl)c(O)c(Cl)c(O)c1C(=O)O[C@H]1[C@H](O)[C@H](OC)[C@H](OC/C2=C\C=C\C[C@H](O)/C(C)=C/[C@H](CC)[C@@H](O[C@@H]3OC(C)(C)[C@@H](OC(=O)C(C)C)[C@H](O)[C@@H]3O)/C(C)=C/C(C)=C/C[C@@H]([C@@H](C)O)OC2=O)O[C@@H]1C [Fidaxomicin],1.08 ± 0.33,1.14 ± 0.26
O=C1NCCCc2c1oc1ccc(O)cc21,1.04 ± 0.2,1.07 ± 0.2
COc1cc(-c2cc(=O)c3c(O)c(OC)c(O)cc3o2)ccc1O [Jaceosidin],1.13 ± 0.2,1.1 ± 0.37
CCCOc1ccc(S(=O)(=O)N2CCN(CCO)CC2)cc1-c1nc2c(CCC)cn(CC)c2c(=O)[nH]1 [Mirodenafil (dihydrochloride)],1.16 ± 0.24,1.16 ± 0.18
N#Cc1c(NC(=O)c2cccc3ccccc23)sc2c1CCCC2,1.16 ± 0.04,1.13 ± 0.039
CC(C)C(C)C(O)C(O)C(C)C1CCC2C3COC(=O)C4CC(O)C(O)CC4(C)C3CCC12C (stereo not given) [Brassinolide],1.262 ± 0.011,1.21 ± 0.19
CC[C@@H]1C(=O)N(C)c2cnc(Nc3ccc(C(=O)N[C@H]4CC[C@H](N5CCN(CC6CC6)CC5)CC4)cc3OC)nc2N1C(C)C [Volasertib],1.28 ± 0.3,1.15 ± 0.025
C=C1C(=O)O[C@@]23[C@H]1CC[C@@H](C)[C@@H]2CC[C@@]1(C)O[C@@H]31 [Arteannuin B],1.08 ± 0.26,1.11 ± 0.018
Cc1nc(C(=O)NCC(=O)O)c(O)c2ccc(Oc3ccccc3)cc12 [Roxadustat (FG-4592)],0.966 ± 0.21,1.18 ± 0.089

Compound,cell count (compound dose 1 µM),cell count (compound dose 5 µM)
CC[C@H](NC(=O)[C@H](C)NC)C(=O)N1C[C@@H](O)C[C@H]1Cc1c(-c2[nH]c3cc(F)ccc3c2C[C@@H]2C[C@H](O)CN2C(=O)[C@H](CC)NC(=O)[C@H](C)NC)[nH]c2cc(F)ccc12 [Birinapant],0.607 ± 0.1,0.532 ± 0.035
O=C(Nc1cnn2ccc(N3CCC[C@@H]3c3cc(F)ccc3F)nc12)N1CC[C@H](O)C1 [Larotrectinib],1.14 ± 0.19,0.947 ± 0.2
CN1C(=O)N[C@H](Cc2c[nH]c3c(Cl)cccc23)C1=O [Necrostatin 2],1.07 ± 0.24,0.972 ± 0.021
CC1=NN(c2ccc(C)c(C)c2)C(=O)/C1=N\Nc1cccc(-c2cccc(C(=O)O)c2)c1O [Eltrombopag],1.04 ± 0.22,0.988 ± 0.079
O=C(O)C1=CC(=C(c2ccc(O)c(C(=O)O)c2)c2ccc(O)c(C(=O)O)c2)C=CC1=O [Aurintricarboxylic acid],1 ± 0.035,1 ± 0.056
O=C(O)Cn1nnc(-c2ccc(CN(CCCCOc3ccc(CN4CCCC4)cc3)CCc3ccccc3)cc2)n1,1.03 ± 0.23,1.14 ± 0.062
CC1(C)Cc2c(-c3ccccc3)c(-c3ccc(Cl)cc3)c(CC(=O)O)n2C1 [Licofelone],1.18 ± 0.28,1.09 ± 0.27
CN1CCN(c2ccc(-c3cccc(CN4CCOCC4)c3)cc2NC(=O)c2c[nH]c(=O)cc2C(F)(F)F)CC1,1.18 ± 0.19,1.21 ± 0.17
CC(C)(C)c1cc(NC(=O)Nc2ccc(-c3cn4c(n3)sc3cc(OCCN5CCOCC5)ccc34)cc2)no1 [Quizartinib (AC220)],1.17 ± 0.16,1.227 ± 0.0014
CCOC(=O)/C=C(C)/C=C/C=C(C)/C=C/c1c(C)cc(OC)c(C)c1C [Etretinate],1.11 ± 0.12,1.12 ± 0.27
O=c1c(O)c(-c2ccc(O)cc2)oc2cc(O)cc(O)c12,1.11 ± 0.088,1.1 ± 0.079
COc1ccc(S(=O)(=O)Nc2cc(-c3csc(C#N)c3)ccc2C)cc1,1.25 ± 0.15,1.19 ± 0.041
CCCc1ccc(OCC(=O)N(Cc2nc(-c3cccnc3)no2)C(C)C)cc1,1.12 ± 0.14,1.09 ± 0.16
CC#CCn1c(N2CCC[C@@H](N)C2)nc2c1c(=O)n(Cc1nc(C)c3ccccc3n1)c(=O)n2C [Linagliptin],1.06 ± 0.055,1.05 ± 0.17
C[C@@H]1CC[C@@]2(OC1)O[C@H]1C[C@H]3[C@@H]4CC=C5C[C@@H](O[C@@H]6O[C@H](CO)[C@@H](O[C@@H]7O[C@@H](C)[C@H](O[C@@H]8O[C@@H](C)[C@H](O)[C@@H](O)[C@H]8O)[C@@H](O)[C@H]7O)[C@H](O)[C@H]6O[C@@H]6O[C@@H](C)[C@H](O)[C@@H](O)[C@H]6O)CC[C@]5(C)[C@H]4CC[C@]3(C)[C@@]1(O)[C@@H]2C [Paris saponin VII],0.355 ± 0.093,0.0185 ± 0.005
CC(C)(CO)[C@@H](O)C(=O)NCCC(=O)O [D-Pantothenic acid (sodium)],1.21 ± 0.25,1.17 ± 0.16
CC(=O)c1c(Nc2ccc(Cl)cc2)[nH]c2c(Br)ccc(Cl)c2c1=O,1.18 ± 0.38,1.37 ± 0.63
CCn1c2ccccc2c2cc(CNC)ccc21,1.14 ± 0.14,1.063 ± 0.0028
CCCOC(=O)c1ccc(O)cc1 [Propylparaben],1.15 ± 0.024,1.1 ± 0.084
COc1cc2ccc(=O)oc2c(O)c1O [Fraxetin],1.25 ± 0.29,1.1 ± 0.28
O=C(NCCN1CCOCC1)Nc1nc2ccc(Sc3nnc4ccc(-c5ccc(F)cc5)nn34)cc2s1,1.13 ± 0.17,1.1 ± 0.25
